Results: PubChem BioAssay AID1240 (Sanford-Burnham Center for Chemical Genomics, 2008)
Screen size: about 50,000 compounds; about 800 (1.6%) showed an effect of 50% or more. The list shows a part of the results.

The compounds below were run against Bcl-2-like protein 10 (Homo sapiens) (UniProt Q9HD36) (assay: Phenotype converters, Bcl-B/TR3 peptide binding displacement, primary biochemical FP (AID 1240;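 also: 0% = Bcl-B with tracer peptide and DMSO and 100% = tracer peptide lacking Bcl-B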)). Conditions: GST-Bcl-B / FITC-TR3 peptide fluorescence polarization; stronger effect = higher value; compound at 3.75 mg/L.
Chain of UniProt Q9HD36 (Q9HD36 whole entry, looked up): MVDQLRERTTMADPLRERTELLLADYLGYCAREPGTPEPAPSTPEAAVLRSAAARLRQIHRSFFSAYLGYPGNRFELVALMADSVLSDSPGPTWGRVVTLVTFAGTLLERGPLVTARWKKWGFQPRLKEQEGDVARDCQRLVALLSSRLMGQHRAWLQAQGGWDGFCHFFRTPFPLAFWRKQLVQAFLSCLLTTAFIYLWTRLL

SMILES | displacement
N#CC(C#N)=C1NC2(CCCCC2)Cc2ccccc21 | -8%
CCOc1cc(C(=O)Nc2ccc([N+](=O)[O-])cc2C)cc(OCC)c1OCC | 11.4%
O=c1c2ccccc2ncn1-c1ccc([N+](=O)[O-])cc1C(F)(F)F | 4.6%
CSc1nc2ccccc2n1CC(=O)NC(c1ccccc1)c1ccccc1 | 10.4%
CC(=Nc1ccncc1)C1=C(O)CC(C)(C)CC1=O | 3%
CN(C)c1ccc(CNC(=O)C(O)(c2ccc(Cl)cc2)c2ccc(Cl)cc2)cc1 | -10.1%
CCOc1ccc(N2C(=O)/C(=C/c3cc(OC)c(OC)c(OC)c3)SC2=S)cc1 | -5.7%
COc1cccc(/C=N/N(C)C2=NS(=O)(=O)c3cc([N+](=O)[O-])ccc32)c1O | -11.3%
COc1ccccc1-c1c(C(F)(F)F)oc2cc(OCc3ccccc3)ccc2c1=O | 5.5%
COc1ccccc1NCCC(=O)c1ccccc1 | 5%
CN(NC1CC(=O)N(c2cccc(Cl)c2)C1=O)c1ccccc1 (centres undefined) | -6.5%
CCOC(=O)c1c(NC(=O)C(CC)Sc2nc(C)cc(C)n2)sc2c1CCCC2 (centres undefined) | -6%
N/C(=N\c1nc2ccccc2o1)NC(=O)c1ccccc1 | -10.3%
O=C1CSC(c2ccc([N+](=O)[O-])cc2)N1c1cccc(Cl)c1 (centres undefined) | -6%
Cc1c(NC(=O)CSc2nnc(-c3cccc(F)c3)n2-c2ccccc2)c(=O)n(-c2ccccc2)n1C | 13.4%
CCCCOc1ccc(C(=O)NCc2cccc3ccccc23)cc1 | -6.8%
O=C(NCCOC(=O)c1ccc(F)cc1)c1ccncc1 | 8.3%
NC(=O)C(Cc1c[nH]c2ccccc12)NC(=O)OCc1ccccc1 (centres undefined) | 2.3%
CCOC(=O)c1ccc(NC(=O)c2ccccc2OC)cc1 | 11.9%
COc1ccccc1/C=C1\SC(=S)N(C(Cc2ccccc2)C(=O)O)C1=O (centres undefined) | 19.2%
O=C(NC(=S)Nc1cccnc1)c1ccco1 | -3.3%
CCCCC(=O)Nc1ccccc1C(F)(F)F | -2.2%
CCOC(=O)C1=C(C)N=c2s/c(=C\c3ccc([N+](=O)[O-])o3)c(=O)n2C1c1cccs1 (centres undefined) | -19.3%

SMILES | displacement
O=C(Nc1cccc2ccccc12)c1ccc(-c2ccccc2)cc1 | 4.3%
COc1ccc(/C=C2/SC(=O)N(CNc3cc(C)ccc3C)C2=O)cc1OC | 12.7%
COc1c(Cl)cc(C(=O)Nc2ccc(-c3nc4ccccc4o3)c(O)c2)cc1Cl | 11%
Cc1ccc(C2=N/C(=C\c3ccc(N(C)C)cc3)C(=O)O2)cc1 | 2.9%
O=C(Nc1cccc(-c2nc3ccccc3s2)c1)c1ccncc1 | 21.5%
N/C(CSc1nnc2c(n1)[nH]c1ccccc12)=N\O | 16.3%
O=C1O/C(=C\C(=O)N2CCOCC2)c2ccccc21 | 2.4%
CCn1c2ccccc2c2cc(/C=N/NC(=O)c3cccc(Br)c3)ccc21 | 5.1%
COc1cc(NC(=O)COc2ccccc2C)ccc1NC(=O)c1ccco1 | 8.5%
O=C(c1ccccc1)c1ccccc1C(=O)N(C1CCCCC1)C1CCCCC1 | 5.8%
CC(=C(C#N)C#N)c1ccc2c(c1)OCCO2 | 4.4%
COc1cccc(C2=NN(C(=O)Cc3ccccc3)C(O)(C(F)(F)F)C2)c1 (centres undefined) | 2.9%
CCOc1ccc(NC(=O)CSc2nc3ccc(OC)cc3[nH]2)cc1 | -15.6%
O=C(NC1CCN(Cc2ccccc2)CC1)c1ccccc1Cl | -6.7%
COC(=O)c1ccccc1NC(=O)C1CC(=O)N(c2ccc(Br)cc2)C1 (centres undefined) | 2.4%
O=C(Nc1ccccc1C(=O)N=Nc1c(O)[nH]c2ccccc12)c1ccccc1 | 21.6%
CCCN1CCC(=NNC(=O)c2ccc(O)cc2)CC1 | 7.1%
COc1cccc(C2(c3cccc(OC)c3)CC2C(=O)Nc2ccccc2Cl)c1 (centres undefined) | -3.8%
O=c1c[n+]([O-])c2ccccc2n1OCc1ccccc1 | 15.9%
COc1cc2c(cc1OC)C(c1ccc(C)o1)SC(c1ccc(C)o1)=N2 (centres undefined) | -1.1%
O=C(Oc1ccc([N+](=O)[O-])cc1)c1ccc(Cl)c(S(=O)(=O)N2CCOCC2)c1 | -4.1%
COc1ccc(-c2cn3c4ccccc4n(N)c3n2)cc1 | 1.1%
Cc1ccc(S(=O)(=O)N2CCN(C(=O)c3cccnc3)CC2)cc1 | -1.9%

SMILES | displacement
Cc1ccc([N+](=O)[O-])cc1NC(=O)COc1ccc(C(C)(C)C)cc1 | 14.7%
COc1ccc(Br)cc1/C=N/NC(=O)C(=O)NC1CCCCC1 | 11.3%
CCN(CC)CCn1c(NC(C)=O)nc2ccccc21 | -14.5%
COc1cc(/C=C2\C(=O)NN(c3ccccc3)C2=O)ccc1OS(=O)(=O)c1ccccc1 | -5.8%
Cn1cc(/C=C(/C#N)C(=O)Nc2cccc(Br)c2)c2ccccc21 | -1.1%
O=C(Nc1ccccc1[N+](=O)[O-])c1ccc(N2C(=O)CCC2=O)cc1 | 5.5%
O=C(/C=C(\O)c1ccccc1)C(=O)Nc1ccc(C(=O)O)cc1 | 0.3%
COc1cc(C=O)ccc1OC(C)c1ccccc1 (centres undefined) | 1.1%
COc1ccc(Cl)cc1N(CC(=O)N1CCCCCC1)S(=O)(=O)c1ccc(C)c([N+](=O)[O-])c1 | -15.9%
COc1ccc(-c2nc3ccccc3c(=O)n2CCCn2ccnc2)cc1 | -4.6%
O=C(Oc1ccc2c(Cl)c(C(=O)Nc3ccc(F)cc3)sc2c1)c1ccco1 | 19.5%
C=CCSc1nc2sc3c(c2c(=O)n1CCc1ccccc1)CC(C)(C)OC3 | -6.8%
O=C(Nc1cccnc1)c1cc2n(n1)C(C(F)(F)F)CC(c1ccc(Br)cc1)N2 (centres undefined) | 1.1%
COc1cc(C(=O)n2nc(C)c(Sc3ccc(C)cc3)c2C)cc(OC)c1OC | -0.8%
O=C(NCc1ccco1)c1cc2nc(-c3ccccc3)cc(-c3ccccc3)n2n1 | -4%
CC1(C)C/C(=N\O)c2cc3c(nc2C1)CCCC3 | 3%
Cc1cccc2c1N(C(=O)CN1C(=O)CCC1=O)C(C)(C)c1ssc(=S)c1-2 | -2.3%
O=C(NCC1CCCO1)C(=O)Nc1ccccc1F (centres undefined) | 10%
O=C(CSc1nnc(-c2ccco2)o1)c1ccc(Br)cc1 | -17%
COc1ccccc1C(=O)N1CCN(Cc2ccccc2Br)CC1 | -24.1%
O=[N+]([O-])c1ccc(C=Nc2ccc(Cl)cc2Cl)s1 | 13.7%
COc1ccc(S(=O)(=O)N(CC(=O)Nc2ccc(C(C)=O)cc2)c2cc(C)cc(C)c2)cc1OC | -4.7%
COc1cc(NC(=O)c2ccc(-c3ccccc3)cc2)ccc1NC(=O)c1ccco1 | 1.7%
